Reference: article PMC4336329 (PLoS ONE, 2015)
The campaign covered roughly 310,000 compounds. About 2,200 (0.71%) showed an effect of 50% or more. The effect is printed as a negative number. This is one part of the list.

target: human ether-à-go-go-related gene (hERG) potassium channel (human, UniProt Q12809); test: primary screen, population patch clamp on CHO cells stably expressing hERG
Sequence (Q12809 whole entry, looked up): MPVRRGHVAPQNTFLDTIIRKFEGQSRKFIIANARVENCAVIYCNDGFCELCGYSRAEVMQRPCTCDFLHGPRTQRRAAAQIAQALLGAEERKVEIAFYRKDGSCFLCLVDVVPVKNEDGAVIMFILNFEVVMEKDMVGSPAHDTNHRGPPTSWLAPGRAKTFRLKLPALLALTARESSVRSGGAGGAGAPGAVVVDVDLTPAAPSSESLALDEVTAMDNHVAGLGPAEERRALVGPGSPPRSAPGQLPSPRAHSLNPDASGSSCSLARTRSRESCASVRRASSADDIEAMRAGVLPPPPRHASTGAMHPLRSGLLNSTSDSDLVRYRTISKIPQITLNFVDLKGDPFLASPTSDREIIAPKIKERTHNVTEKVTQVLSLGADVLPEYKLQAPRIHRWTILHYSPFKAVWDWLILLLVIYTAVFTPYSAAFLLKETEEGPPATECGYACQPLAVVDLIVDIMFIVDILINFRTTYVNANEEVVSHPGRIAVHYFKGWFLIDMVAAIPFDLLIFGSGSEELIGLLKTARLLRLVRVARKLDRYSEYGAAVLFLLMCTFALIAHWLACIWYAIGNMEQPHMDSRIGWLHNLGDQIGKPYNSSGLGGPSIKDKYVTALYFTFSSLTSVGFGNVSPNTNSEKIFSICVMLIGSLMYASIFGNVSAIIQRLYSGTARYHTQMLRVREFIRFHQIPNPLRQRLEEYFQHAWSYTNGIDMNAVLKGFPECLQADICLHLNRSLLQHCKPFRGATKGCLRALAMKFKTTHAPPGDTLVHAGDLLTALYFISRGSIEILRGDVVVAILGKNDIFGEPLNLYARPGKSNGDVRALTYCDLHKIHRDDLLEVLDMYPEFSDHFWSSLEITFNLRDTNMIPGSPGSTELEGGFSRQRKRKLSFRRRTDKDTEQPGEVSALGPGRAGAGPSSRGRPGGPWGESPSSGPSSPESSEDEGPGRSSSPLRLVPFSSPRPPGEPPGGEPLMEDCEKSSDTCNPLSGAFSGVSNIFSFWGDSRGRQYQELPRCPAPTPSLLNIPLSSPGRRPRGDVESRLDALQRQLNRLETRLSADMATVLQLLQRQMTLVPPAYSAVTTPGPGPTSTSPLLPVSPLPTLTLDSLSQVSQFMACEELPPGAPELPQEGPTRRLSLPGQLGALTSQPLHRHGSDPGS

Point of comparison: O=S(=O)(Nc1ccccc1)c1cccc2nsnc12, “hERG current change (%, negative = inhibition) at 1uM” value 17.3%. Against it:
- CCc1cc(-c2[nH]ncc2-c2ccc3c(c2)OCO3)c(O)cc1O — lower, 8.12%
- Cc1ccc(NC(=O)C2=CC(c3cccs3)=NS(=O)(=O)N2C)cc1 — lower, 9.67%
- O=C1C2C3C=CC(C3)C2C(=O)N1c1nccs1 (centres unmarked) — higher, 20.1%
- COc1ccc(C(=O)N2CCCCCC2)cc1S(=O)(=O)N1CCOCC1 — lower, 12.7%
- O=C(O)c1nn(CCOc2ccc(Br)cc2)c(=O)c2ccccc12 — lower, 16.6%
- CN1C(=O)[C@H]2[C@@H](/C=C/c3ccccc3)N3C(=O)CN(Cc4ccc(-c5ccccc5)cc4)C(=O)[C@@]3(Cc3ccccc3)[C@H]2C1=O — lower, 8.13%
- O=C(Nc1ccc(Cl)cc1)N1CCN(c2ncccn2)CC1 — lower, 3.45%
- COc1cc(/C=N/NC(=O)c2cnccn2)cc(OC)c1OC — lower, 2.4%
- O=C(O)c1ccc(CSc2nnnn2C2CCCCC2)cc1 — lower, -1.94%
- CC(NC(=O)c1ccc(NC2=NC3CS(=O)(=O)CC3S2)cc1)c1ccccc1 (centres unmarked) — lower, 12.7%
- Cc1c(NC(=O)c2ccc(CN3CCc4ccccc4C3)cc2)c(=O)n(-c2ccccc2)n1C — lower, 4.18%
- O=c1c2[nH]c3ccccc3c2ncn1CCCn1ccnc1 — lower, -12%
- COc1ccc(Nc2nc(C)cc(C)c2C(N)=O)c(OC)c1 — lower, 12.5%
- O=C(O)c1cc([N+](=O)[O-])ccc1N1CCC(Cc2ccccc2)CC1 — lower, 7.61%
- Cc1cc(C)c2c(CC(=O)NCc3ccco3)coc2c1 — lower, 3.41%
- O=Cc1c(C(=O)O)n(CC(=O)O)c2ccccc12 — lower, 6.49%
- CC(C)=CCC(C)(C)CNC(=O)NC1CCCCC1 — lower, 9.18%
- OCCN=C1CCCc2c1[nH]c1ccc(Cl)cc21 — lower, 6.5%
- Cc1ncc(N=Nc2ccccc2)c(-c2ccccc2)n1 — higher, 18.4%
- C=CCN1C(=O)/C(=C/c2ccc(O)cc2)S/C1=N/c1nccs1 — lower, -4.68%
- Brc1ccc(N/N=C(/N=Nc2nn[nH]n2)c2ccccc2)cc1 — lower, 12.8%
- CCN(CC)S(=O)(=O)c1ccc(NC(=O)COC(=O)CCc2cc(OC)c(OC)c(OC)c2)cc1 — lower, 10.2%
- Cl.N=c1sccn1CC(=O)Nc1ccccc1Sc1ccccc1 — lower, -2.61%
- COc1ccc(Cl)cc1NC(=S)NN1CCOCC1 — higher, 26%
- Cc1ccc(CC(CC(=O)O)C(=O)NCc2ccccc2)cc1 (centres unmarked) — lower, 15.3%
- CCN(CC)CCn1c2c(c(SCC(=O)Nc3ccc(C)c(F)c3)nc1=O)CCCC2 — lower, -43.9%
- COc1ccc(-c2cc(NCCc3ccncc3)n3ncnc3n2)cc1 — lower, -19.9%
- CCOC(=O)Cc1csc(NC(=O)c2ccc(Br)o2)n1 — lower, 11%
- CC(C)NC(=O)C1CCN(C2CCN(C(=O)Cc3ccc4c(c3)OCO4)CC2)CC1 — lower, 4.98%
- O=C(NCc1ccco1)C1CC(O)CN1C(=O)Nc1ccccc1 (centres unmarked) — higher, 19.4%
- CCOC(=O)c1cc(CN2CCOCC2)oc1-c1ccccc1 — lower, -8.28%
- Cc1ccc(S(=O)(=O)N2CCOCC2)cc1NC(=O)CN1CCC(Cc2ccccc2)CC1.O=C(O)C(=O)O — lower, -4.02%
- Cc1cc(Oc2ccc(Cl)cc2)nc(-c2ccccc2O)n1 — lower, 6.44%
- O=C(O)C1Nc2ccc(OC(F)(F)F)cc2C2C=CCC12 (centres unmarked) — lower, 15.3%
- COc1ccc(C(=O)NCC(C)(C)CNC(=O)c2ccc(OC)c(OC)c2)cc1OC — lower, -0.0282%
- COc1ccc(NC(=O)Cn2nnc(C(=O)NCc3ccc(C)cc3)c2N)cc1OC — lower, 17%
- Cc1ccc(OCCC(=O)OCC(=O)NCCc2ccccc2)cc1 — lower, 16.5%
- Cc1ccc(OCc2nnc(SC(C)C(=O)O)n2-c2ccccc2)cc1 (centres unmarked) — higher, 18.1%
- Cc1ccc(C(=O)NCCc2ccccc2)cc1 — lower, 5.34%
- N#Cc1c(N)n(-c2ccc(N)cc2)c2nc3ccccc3nc12 — lower, 12%
- COc1ccccc1CNC(=O)C1CCCN(S(=O)(=O)c2ccc3c(c2)CC(C)N3C(C)=O)C1 (centres unmarked) — lower, -0.514%
- COc1ccc(S(=O)(=O)N(C)CC(=O)NC2CCCCC2)cc1Cl — lower, -1.1%
- COc1cccc2c1OCC(C(=O)NCc1ccc(Cl)cc1Cl)=C2 — lower, 14.9%
- Cc1nc2ccc(NC(=O)c3ccc(S(=O)(=O)N(C)c4ccccc4)cc3)cc2s1 — lower, 4.8%
- NNc1nc2c(Cl)c(Cl)ccc2s1 — higher, 20.3%
- COc1ccc(C)cc1NC(=O)C1CCN(C(=O)C2CC(=O)N(c3ccc(C)cc3)C2)CC1 (centres unmarked) — lower, 9.6%
- CCn1c(SCC(=O)c2ccc(Br)cc2)nnc1C(C)NC(=O)Cc1ccc(OC)cc1 (centres unmarked) — lower, -19.1%
- COc1ccc(C2=CC(=O)C[C@H](c3ccc(OC)c(OC)c3)C2)cn1 — lower, 7.11%
- O=C1NN(c2ccc(F)cc2)C(=O)/C1=C\C=C\c1ccco1 — lower, 10.6%
- Cc1nc(-c2cccc(N)c2)cs1 — lower, 9.09%
- CCCN(CC(=O)Nc1ccccc1C)C(=O)c1ccc(-c2ccc([N+](=O)[O-])cc2)o1 — lower, 1.51%
- O=C(Nc1ccccn1)c1cccc(S(=O)(=O)N2CCCCC2)c1 — lower, 4.89%
- O=C(O)c1ccccc1S(=O)CCO (centres unmarked) — lower, 4.9%
- O=C(NCc1cccs1)N[C@@H](Cc1ccccc1)C(=O)O — lower, 8.42%
- NC(=O)c1oc2ccccc2c1NC(=O)c1ccc(F)cc1 — lower, 11.1%
- CSc1nc(-c2ccc(C)cc2)[nH]c1S(=O)(=O)c1ccccc1 — lower, 14%
- C1CNCCN1.COc1cc(C(O)CO)ccc1O (centres unmarked) — lower, 10%
- CC1(C(=O)NCc2cc(F)cc(C(F)(F)F)c2)C=CC2(CCCCC2)N1C(=O)c1ccccc1 (centres unmarked) — lower, 6.9%
- Cc1ccc(NC(=O)c2ccc(NCCN)c([N+](=O)[O-])c2)cc1 — lower, 3.49%
- CC(=O)Nc1cc2c(cc1NC(=O)c1cnccn1)OCCO2 — higher, 19.8%
- CC(=O)c1cccc(NC(=O)NC(C)C2CCCO2)c1 (centres unmarked) — lower, 11.5%
- Cn1c(=O)c(C(=O)CN2CCCCCC2)c(N)n(Cc2ccccc2)c1=O — lower, 3.57%
- CCN(CC)C(=O)CN1C(=O)C2(NC(=O)c3ccccc3N2)c2ccccc21 (centres unmarked) — lower, 16.5%
- CCOC(=O)C(=N/O)/C(C)=N/NC(C)=O — lower, 15.9%
- COc1cccc(OCCn2c(C)c(/C=N/n3cnnc3)c3ccccc32)c1 — lower, 6.18%
- O=C(Nc1ccccc1)c1ccc(NCc2ccco2)c(S(=O)(=O)N2CCOCC2)c1 — lower, 3.17%
- CCOC(=O)C1=C(C)NC2=C(C(=O)c3ccccc32)C1c1cccc2ccccc12 (centres unmarked) — lower, 14.3%
- Cc1cc(C)nc(N2CCC(C(=O)NCc3ccco3)CC2)n1 — lower, 1.22%
- CC(=O)c1cccc(NC(=S)NC2CC2)c1 — lower, 2.81%
- Cc1ccc(S(=O)(=O)NNC2=NCCCCC2)cc1 — lower, 2.68%
- CN(C)/C=C/C1=C([N+](=O)[O-])C(c2cccc([N+](=O)[O-])c2)NC(=O)N1 (centres unmarked) — lower, 9.47%
- O=C(/C=C/c1ccccc1)NC(=S)Nc1ccc(N2CCOCC2)cc1 — lower, 14.7%
- CCOc1ncccc1C(=O)Nc1nnc(C)s1 — lower, 10.8%
- CSc1ncc(C(=O)Nc2ccc(Cl)cc2)c(C)n1 — lower, 16%
- Cc1ccc(C)c(S(=O)(=O)N2CCCCC2CCNC(=O)C(=O)NCc2ccccn2)c1 (centres unmarked) — lower, 10.7%
- Cc1ccccc1NC(=O)CN1C(=O)N/C(=C\c2ccccc2OCc2ccc(C(=O)O)cc2)C1=O — lower, 15.4%
- Cc1oc2c(cc(NS(=O)(=O)c3ccc(C(C)C)cc3)c3ccccc32)c1C(=O)O — lower, 8.87%
- COc1cc2c(cc1OC)CN(C(=O)c1oc3ccccc3c1C)CC2 — lower, 7.12%
- CCOC(=O)N1CCN(C(=O)CSC2=NS(=O)(=O)c3ccccc3N2)CC1 — lower, 0.037%
- O=Cc1cc(Br)c(OC(=O)N2CCOCC2)c(Br)c1 — lower, -1.22%
- CCOC(=O)c1c(-c2ccccc2)csc1NC(=O)c1ccc(S(=O)(=O)N2CCOCC2)cc1 — lower, 12.5%
- Cc1cc(S(=O)(=O)N2CCCCC2CCNC(=O)C(=O)NC2CC2)ccc1F (centres unmarked) — lower, 4.66%
- COc1ccc(NC(=O)Cn2nnc3sc4c(c3c2=O)CC(C)(C)OC4)cc1 — lower, 5.39%
- C/C(=N\NC(=O)c1nnn(-c2nonc2N)c1-c1cccs1)c1cccnc1 — lower, 2.34%
- O=C(Cc1cccc(NC(=O)C2CCN(C(=O)C3CC3)CC2)c1)Nc1cccc(C(=O)N2CCCC2)c1 — lower, 9.97%
- CCOC(=O)c1nc2c(=O)n(C)c(=O)n(C)c2n(C)c1=O — lower, 13.7%
- Cc1cc(C)n2nc(SC(C)C(=O)NCc3ccco3)nc2n1 (centres unmarked) — lower, 10.1%
- COc1ccc(S(=O)(=O)Nc2ccccc2OC)cc1NC(=O)CC1CC2CCC1C2 (centres unmarked) — lower, 3.53%
